# Data reported in the supplement of paper PMC8728848.
# The list shows a part of the results.
# B1: Banana lectin (Musa acuminata) (protein)
# chain: MNGAIKVGAWGGNGGSAFDMGPAYRIISVKIFSGDVVDGVDVTFTYYGKTETRHYGGSGGTPHEIVLQEGEYLVGMAGEVANYHGAVVLGKLGFSTNKKAYGPFGNTGGTPFSLPIAAGKISGFFGRGGKFLDAIGVYLEPLEHHHHHH
# Columns and labels:
# Assay in all cases: glycan array binding signal (z-score within array); higher = stronger binding
# Conditions in all cases: glycan notation: IUPAC condensed, linker removed
# [1] = target: GlcNAc(b1-3)Gal(b1-4)GlcNAc(b1-2)[GlcNAc(b1-3)Gal(b1-4)GlcNAc(b1-6)]Man(a1-6)[GlcNAc(b1-3)Gal(b1-4)GlcNAc(b1-2)Man(a1-3)]Man(b1-4)GlcNAc(b1-4)GlcNAc
# Summary of the method: (§1)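 Columns mapping to the same glycan were averaged after glycan names were converted to IUPAC-condensed notation. The data come from 3228 arrays in the Consortium for Functional Glycomics database, limited to those with an available protein sequence. Binding is reported as a within-array Z-score averaged across arrays of one protein sequence and across linkers.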
# [2] = target: GlcNAc(b1-3)Gal(b1-4)GlcNAc(b1-3)Gal(b1-4)GlcNAc
# Summary of the method: as §1
# [3] = target: GlcNAc(b1-3)Gal(b1-4)GlcNAc(b1-3)Gal(b1-4)GlcNAc(b1-2)Man(a1-3)[GlcNAc(b1-3)Gal(b1-4)GlcNAc(b1-3)Gal(b1-4)GlcNAc(b1-2)Man(a1-6)]Man(b1-4)GlcNAc(b1-4)GlcNAc
# Summary of the method: as §1
# [4] = target: GlcNAc(b1-3)Gal(b1-4)GlcNAc(b1-3)Gal(b1-4)GlcNAc(b1-2)Man(a1-3)[GlcNAc(b1-3)Gal(b1-4)GlcNAc(b1-3)Gal(b1-4)GlcNAc(b1-2)Man(a1-6)]Man(b1-4)GlcNAc(b1-4)[Fuc(a1-6)]GlcNAc
# Summary of the method: as §1
# [5] = target: GlcNAc(b1-3)Gal(b1-4)GlcNAc(b1-3)Gal(b1-4)GlcNAc(b1-2)[GlcNAc(b1-3)Gal(b1-4)GlcNAc(b1-3)Gal(b1-4)GlcNAc(b1-6)]Man(a1-6)[GlcNAc(b1-3)Gal(b1-4)GlcNAc(b1-3)Gal(b1-4)GlcNAc(b1-2)Man(a1-3)]Man(b1-4)GlcNAc(b1-4)[Fuc(a1-6)]GlcNAc
# Summary of the method: as §1
# [6] = target: GlcNAc(b1-3)Gal(b1-4)GlcNAc(b1-3)Gal(b1-4)GlcNAc(b1-3)Gal(b1-4)GlcNAc(b1-2)Man(a1-3)[GlcNAc(b1-3)Gal(b1-4)GlcNAc(b1-3)Gal(b1-4)GlcNAc(b1-3)Gal(b1-4)GlcNAc(b1-2)Man(a1-6)]Man(b1-4)GlcNAc(b1-4)GlcNAc
# Summary of the method: as §1
# [7] = target: GlcNAc(b1-3)Gal(b1-4)GlcNAc(b1-3)Gal(b1-4)GlcNAc(b1-3)Gal(b1-4)GlcNAc(b1-2)Man(a1-3)[GlcNAc(b1-3)Gal(b1-4)GlcNAc(b1-3)Gal(b1-4)GlcNAc(b1-3)Gal(b1-4)GlcNAc(b1-2)Man(a1-6)]Man(b1-4)GlcNAc(b1-4)[Fuc(a1-6)]GlcNAc
# Summary of the method: as §1
# [8] = target: GlcNAc(b1-3)Gal(b1-4)GlcNAc(b1-3)Gal(b1-4)GlcNAc(b1-3)Gal(b1-4)GlcNAc(b1-2)[GlcNAc(b1-3)Gal(b1-4)GlcNAc(b1-3)Gal(b1-4)GlcNAc(b1-3)Gal(b1-4)GlcNAc(b1-6)]Man(a1-6)[GlcNAc(b1-3)Gal(b1-4)GlcNAc(b1-3)Gal(b1-4)GlcNAc(b1-3)Gal(b1-4)GlcNAc(b1-2)Man(a1-3)]Man(b1-4)GlcNAc(b1-4)[Fuc(a1-6)]GlcNAc
# Summary of the method: as §1
# [9] = target: GlcNAc(b1-3)Gal(b1-4)GlcNAc(b1-3)Gal(b1-4)GlcNAc(b1-3)Gal(b1-4)GlcNAc(b1-3)Gal(b1-4)GlcNAc(b1-2)Man(a1-3)[GlcNAc(b1-3)Gal(b1-4)GlcNAc(b1-3)Gal(b1-4)GlcNAc(b1-3)Gal(b1-4)GlcNAc(b1-3)Gal(b1-4)GlcNAc(b1-2)Man(a1-6)]Man(b1-4)GlcNAc(b1-4)GlcNAc
# Summary of the method: as §1
# [10] = target: GlcNAc(b1-3)Gal(b1-4)GlcNAc(b1-3)Gal(b1-4)GlcNAc(b1-3)Gal(b1-4)GlcNAc(b1-3)Gal(b1-4)GlcNAc(b1-2)Man(a1-3)[GlcNAc(b1-3)Gal(b1-4)GlcNAc(b1-3)Gal(b1-4)GlcNAc(b1-3)Gal(b1-4)GlcNAc(b1-3)Gal(b1-4)GlcNAc(b1-2)Man(a1-6)]Man(b1-4)GlcNAc(b1-4)[Fuc(a1-6)]GlcNAc
# Summary of the method: as §1
# [11] = target: GlcNAc(b1-3)Gal(b1-4)GlcNAc(b1-3)Gal(b1-4)GlcNAc(b1-3)Gal(b1-4)GlcNAc(b1-3)Gal(b1-4)GlcNAc(b1-2)[GlcNAc(b1-3)Gal(b1-4)GlcNAc(b1-3)Gal(b1-4)GlcNAc(b1-3)Gal(b1-4)GlcNAc(b1-3)Gal(b1-4)GlcNAc(b1-6)]Man(a1-6)[GlcNAc(b1-3)Gal(b1-4)GlcNAc(b1-3)Gal(b1-4)GlcNAc(b1-3)Gal(b1-4)GlcNAc(b1-3)Gal(b1-4)GlcNAc(b1-2)Man(a1-3)]Man(b1-4)GlcNAc(b1-4)[Fuc(a1-6)]GlcNAc
# Summary of the method: as §1
# [12] = target: GlcNAc(b1-3)Gal(b1-4)GlcNAc(b1-3)Gal(b1-4)GlcNAc(b1-3)GalNAc
# Summary of the method: as §1
# [13] = target: GlcNAc(b1-3)Gal(b1-4)GlcNAc(b1-3)GalNAc
# Summary of the method: as §1
# [14] = target: GlcNAc(b1-3)Gal(b1-4)GlcNAc(b1-3)[GlcNAc(b1-3)Gal(b1-4)GlcNAc(b1-3)]GalNAc
# Summary of the method: as §1
# [15] = target: GlcNAc(b1-3)Gal(b1-4)GlcNAc(b1-6)[Gal(b1-3)]GalNAc
# Summary of the method: as §1
# [16] = target: GlcNAc(b1-3)Gal(b1-4)GlcNAc(b1-6)[GlcNAc(b1-3)Gal(b1-3)]GalNAc
# Summary of the method: as §1
# [17] = target: GlcNAc(b1-3)Gal(b1-4)GlcNAc(b1-6)[GlcNAc(b1-3)]Gal(b1-4)GlcNAc
# Summary of the method: as §1
# GlcNAc(b1-3)GalNAc = target: GlcNAc(b1-3)GalNAc
# Summary of the method: as §1
# GlcNAc(b1-3)Man = target: GlcNAc(b1-3)Man
# Summary of the method: as §1
# [18] = target: GlcNAc(b1-3)[GlcNAc(b1-4)][GlcNAc(b1-6)]GlcNAc
# Summary of the method: as §1
# [19] = target: GlcNAc(b1-3)[GlcNAc(b1-6)]Gal(b1-4)GlcNAc
# Summary of the method: as §1
# [20] = target: GlcNAc(b1-3)[GlcNAc(b1-6)]GalNAc
# Summary of the method: as §1
# [21] = target: GlcNAc(b1-4)Gal(b1-4)GlcNAc
# Summary of the method: as §1
binder,measurement,setting,value
B1,glycan array binding signal (z-score),[1],-0.124
same,glycan array binding signal (z-score),[2],-0.184
same,glycan array binding signal (z-score),[3],-0.156
same,glycan array binding signal (z-score),[4],-0.03
same,glycan array binding signal (z-score),[5],-0.146
same,glycan array binding signal (z-score),[6],-0.139
same,glycan array binding signal (z-score),[7],-0.122
same,glycan array binding signal (z-score),[8],-0.157
same,glycan array binding signal (z-score),[9],-0.165
same,glycan array binding signal (z-score),[10],-0.145
same,glycan array binding signal (z-score),[11],-0.113
same,glycan array binding signal (z-score),[12],-0.184
same,glycan array binding signal (z-score),[13],-0.235
same,glycan array binding signal (z-score),[14],-0.214
same,glycan array binding signal (z-score),[15],-0.176
same,glycan array binding signal (z-score),[16],-0.186
same,glycan array binding signal (z-score),[17],-0.208
same,glycan array binding signal (z-score),GlcNAc(b1-3)GalNAc,-0.2
same,glycan array binding signal (z-score),GlcNAc(b1-3)Man,-0.24
same,glycan array binding signal (z-score),[18],-0.209
same,glycan array binding signal (z-score),[19],-0.181
same,glycan array binding signal (z-score),[20],-0.212
same,glycan array binding signal (z-score),[21],-0.202
